PubChem BioAssay AID504832 (National Center for Advancing Translational Sciences (NCATS), 2011)
Screen size: about 310,000 compounds; about 18,000 (5.8%) were called active. Inconclusive means that the source gave no clear call. Such entries were picked first, then a sample of the others. The call rests on the fitted dose curve; in most records, active means well fitted inhibition curve with a large enough effect; inconclusive means small, poorly fitted or top-dose-only effect, or another doubt; inactive means no such curve, though single readings can be large or run the other way. Potencies of inconclusive entries are left out as doubtful fits.

Assay: Primary qHTS for delayed death inhibitors of the malarial parasite plastid, 48 hour incubation
Settings: P. falciparum luciferase growth in erythrocytes; series mostly up to 28.7 µM
Procedure, shortened: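 A one-generation exposure of luciferase-tagged malaria parasites in RPMI 1640/Albumax erythrocyte culture, 37 C and 5% CO2. Inhibition is inferred from decreased luminescence after adding detection reagent.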
Potency means the concentration at half of the fitted maximal effect; tags describe the fitted curve by direction and shape.

Row | SMILES | Potency
1 | Cc1ccc(NC(=S)NCC(C)CSc2ccc(Cl)cc2)cc1 (stereo not given) | inconclusive [inhibitor, partial curve]
2 | O=S(=O)(Nc1nc2ccccc2nc1-[n+]1cccc(N=C([O-])c2ccc(Cl)cc2)c1)c1ccccc1 | inconclusive [inhibitor, partial curve, poor fit]
3 | Cc1ccc(C(C(=O)NC2CCCC2)N(Cc2ccccc2)C(=O)c2csnn2)o1 (stereo not given) | inactive
4 | N#Cc1ccc(COc2ccc(CCO)cc2-n2nc3ccccc3n2)cc1 | inconclusive [inhibitor, single point]
5 | COC(=O)C1=C(CSc2nc3c(cc2C#N)CN(C)CC3)OC(N)=C(C#N)C1c1ccccc1F (stereo not given) | inconclusive [inhibitor, single point]
6 | COc1cccc([C@@H]2Oc3ccc(OC)cc3C(=O)[C@H]2OC(=O)N[C@H](C)C2CCCCC2)c1 | inconclusive [inhibitor, single point]
7 | CC1CCCC(NC(=O)Cc2ccc(Br)cc2)C1C (stereo not given) | inconclusive [inhibitor, single point]
8 | O=C(NNC(=O)c1cccs1)c1ccc(Br)cc1 | inactive
9 | CN(C)Cc1c(C(=O)N/N=C/c2cccnc2)nnn1-c1nonc1N | inconclusive [inhibitor, partial curve, poor fit]
10 | COc1ccc(/C=C/C(=O)OCC(=O)NCc2cccs2)cc1OC | inactive
11 | O=C(O)c1ccc(Nc2nc(-c3ccccc3)nc3ccccc23)cc1 | inconclusive [inhibitor, partial curve, poor fit]
12 | COc1cc(C2C(C#N)=C(N)Oc3n[nH]c(C)c32)ccc1OC(=O)c1ccccc1 (stereo not given) | inactive
13 | c1ccc(-c2csc(-c3ccncc3)n2)cc1 | inconclusive [inhibitor, single point]
14 | CCCSCCCNC(=O)c1ccc(C)c(NC(=O)C2=C(C)OCCS2)c1 | inconclusive [inhibitor, partial curve, poor fit]
15 | Cc1ccc(S(=O)(=O)N(C)CC(=O)OCC(=O)NCCN2C(=O)CSC2=O)cc1 | inactive
16 | CN(C)CCOC(c1ccccc1)c1ccccc1 | inconclusive [inhibitor, single point]
17 | CCOCCCNc1ncnc2c1[nH]c1ccccc12 | active: 10.4 µM
18 | O=C(CNCc1ccccn1)Nc1cc(C(F)(F)F)ccc1N1CCOCC1 | inconclusive [inhibitor, single point]
19 | CCn1ncc(C2=NOC(C(=O)Nc3cc(OC)c(Cl)cc3OC)C2)c1C (stereo not given) | inactive
20 | CN(CCc1ccccn1)C(=O)Nc1ccc(F)cc1 | inactive
21 | Cc1cccc(N2CCN(C(=O)c3ccc(N4CCCC4=O)cc3)CC2)c1C | inconclusive [inhibitor, partial curve]
22 | CC(C)(C)c1ccc(S(=O)(=O)N2CCN(c3ncccn3)CC2)cc1 | inconclusive [inhibitor, partial curve, poor fit]
23 | CN1CCc2cccc3c2[C@@H]1Cc1ccc(O)c(O)c1-3 | active: 2.62 µM

Row | SMILES | Potency
24 | CC(O)C(=O)O (stereo not given) | inactive
25 | CC(C)C[C@H](CO)Nc1nc(N(C)c2cccc(Cl)c2)c2ncn(C(C)C)c2n1 | active: 13.1 µM
26 | CN(C)S(=O)(=O)c1ccc(C(=O)Nc2ccc(CN3CCCC3)cc2)cc1 | inconclusive [inhibitor, single point]
27 | O=C(CN1c2ccccc2Sc2ccccc21)N/N=C/c1ccc([N+](=O)[O-])cc1 | inconclusive [inhibitor, single point]
28 | COc1ccccc1C1CCN(C(=O)c2ccc(Cl)cc2)CC1 | inconclusive [inhibitor, partial curve, poor fit]
29 | O=C(O)CSc1nnc(CSc2nc3ccccc3s2)n1-c1ccccc1 | inactive
30 | Cc1c(CCC(=O)NCCCn2ccnc2)c(=O)oc2cc3occ(C(C)(C)C)c3cc12 | inconclusive [inhibitor, full curve, poor fit]
31 | COc1cc(CCC(=O)OCc2ccccc2C#N)cc(OC)c1OC | inactive
32 | COc1ccccc1NC(=O)CN1CCN(CC(=O)Nc2cc(NC(C)=O)ccc2OC)CC1 | inconclusive [inhibitor, single point]
33 | Cc1cc(C)n(-c2ccc(C(=O)N3CCC(CO)(Cc4ccccc4)CC3)cc2)n1 | inconclusive [inhibitor, single point]
34 | CCCC[C@@H]1CN=C(N)N1CCc1cc(C(F)(F)F)cc(C(F)(F)F)c1 | active: 5.22 µM
35 | O=C(CCc1nnc2n(Cc3ccc(Cl)cc3)c(=O)c3ccccc3n12)N1CCN(c2ccccn2)CC1 | inconclusive [inhibitor, full curve, poor fit]
36 | Cc1ccc2oc(=O)c3cc(C(=O)NCCCN4CC(C)CC(C)C4)sc3c2c1 (stereo not given) | active: 2.08 µM
37 | Cc1cccc(NC(=O)c2c(C)nn(-c3ccccc3)c2Cl)c1 | inactive
38 | Cc1ccccc1CCN(C(=O)Cn1nnc2ccccc21)C(C(=O)NC(C)(C)C)c1ccsc1 (stereo not given) | inconclusive [inhibitor, partial curve]
39 | CC(=O)Nc1ccc(Nc2ccc3nonc3c2[N+](=O)[O-])cc1 | inconclusive [inhibitor, single point]
40 | CC(C)N(CC#CC(O)(c1ccccc1)c1ccccc1)C(C)C | inconclusive [inhibitor, single point]
41 | COc1ccccc1N1CCN(C(=O)c2cc(-c3ccc(Cl)cc3)on2)CC1 | inactive
42 | COC(=O)COc1cccc(NC(=O)c2ccc(C)cc2)c1 | inconclusive [inhibitor, full curve, poor fit]
43 | COc1ccc(CNc2ccc([N+](=O)[O-])cc2C)cc1 | inconclusive [inhibitor, single point]
44 | O=C(CC1SC(=O)N(c2ccccc2)C1=O)Nc1ccccc1 (stereo not given) | inactive
45 | O=C(N/N=C/c1ccc(OCC2COCCO2)cc1)c1ccc(Br)cc1 (stereo not given) | inconclusive [inhibitor, single point]
